PubChem BioAssay AID463173 (ICCB-Longwood Screening Facility, Harvard Medical School, 2010)
Among all 52,000 compounds or so, about 4,300 (8.3%) were called active. Rule as the data show it: active = survival mostly below about 52% (no sharp cut-off); inactive = mostly above about 56%. The list shows a part of the results.

What follows are compounds tested on DeltatarO mutant (assay: S. aureus survival, RN4220 and DeltatarO strains – OD600, teichoic acid synthesis inhibitors, primary screen (AID 463173)). Conditions: S. aureus RN4220 wild type/DeltatarO growth, OD600, 18 h, hits give low values, screened at 18.75 µg/mL (by protocol).

Which survival does the source give for `CCc1ccccc1NC(=O)CCCN1C(=O)COc2ccc(C)cc21` here?
Its survival is inactive: 68%.

For `CCOc1ccc2nc(N3CCCC(C(=O)NCc4ccc(OC)cc4)C3)sc2c1` (stereo unspecified), which survival is on record?
Its survival is inactive: 96%.

Which survival does the source give for `CCOC(=O)N1CCc2c(sc(NCc3cccs3)c2C(=O)Nc2cc(OC)ccc2OC)C1` here?
The survival was inactive: 90%.

`CCOC(=O)c1nnn(C(CC)C(=O)Nc2c(C)cccc2C)c1C(=O)OCC` (stereo unspecified) was tested. Which survival did it give?
Its survival is inactive: 100%.

With `CC(C)c1ccc(Nc2cc(C(=O)NCc3cccs3)c3ccccc3n2)cc1` as the compound, how does the survival read?
Its survival is inactive: 93%.

For `CC(C)CNC(=O)C1CCN(c2ccc(S(=O)(=O)N3CCOCC3)cc2)CC1`, which survival is on record?
Its survival is inactive: 75%.

`CCN(CC)C(=O)CSc1nnc2[nH]c(=O)cc(C)n12` was tested. Which survival did it give?
The survival was inactive: 78%.

How did the survival turn out when `COc1ccc(CCNC(=O)Cn2c(-c3cccs3)cc3cc(F)ccc32)cc1OC` was run?
The survival was inactive: 83%.

How did the survival turn out when `COc1ccc(CCNC(=O)CN2C(=O)COc3ccccc32)cc1OC` was run?
Its survival is inactive: 126%.

`COc1cccc(CNC(=O)c2ccc(CS(=O)c3ccccc3)o2)c1` (stereo unspecified) was tested. Which survival did it give?
Its survival is inactive: 120%.

Which survival does the source give for `CN(C1CCCCC1)S(=O)(=O)c1ccc(S(=O)(=O)N(Cc2cccs2)CC2CCCO2)cc1` (stereo unspecified) here?
Its survival is inactive: 59%.

`COc1ccc(NC(=O)c2oc3ccccc3c2NC(=O)c2cc(OC)c(OC)c(OC)c2)cc1` was tested. Which survival did it give?
The survival was inactive: 107%.

For `COc1ccc(NC(=O)c2c(C)oc3ccc(O)c(CN4CCCC(C)C4)c23)cc1` (stereo unspecified), which survival is on record?
The survival was inactive: 87%.

With `Cc1cccc(Oc2nc3c(c(=O)n(C)c(=O)n3C)n2C)c1C` as the compound, how does the survival read?
Its survival is inactive: 84%.

With `CC(C(=O)Nc1cccc(N)c1)n1nnc2ccccc21` (stereo unspecified) as the compound, how does the survival read?
Its survival is inactive: 65%.

With `CCc1ccccc1NC(=O)C(CCSC)NS(=O)(=O)c1ccc2c(c1)oc(=O)n2C` (stereo unspecified) as the compound, how does the survival read?
Its survival is inactive: 102%.

How did the survival turn out when `CCOC(=O)N1CCN(C(=O)c2cnn(-c3cccc(F)c3)c2-n2cccc2)CC1` was run?
Its survival is inactive: 102%.

With `N#Cc1c(-c2ccccc2)cc(-c2ccccc2)nc1SCC(=O)Nc1ccc(Cl)cc1` as the compound, how does the survival read?
The survival was inactive: 127%.

`COc1cc(Cl)c(C)cc1NC(=O)NC1COc2ccccc2C1` (stereo unspecified) was tested. Which survival did it give?
The survival was inactive: 72%.

`Clc1ccc(NCCC2=CCCCC2)nn1` was tested. Which survival did it give?
The survival was inactive: 84%.

Which survival does the source give for `CCn1cc(CNC(=O)CCCSc2nc(-c3ccco3)cc(C(F)(F)F)n2)cn1` here?
Its survival is inactive: 74%.

With `CCc1ccc(-c2ccc3nnc(SCC(=O)Nc4cccc(C(C)=O)c4)n3n2)cc1` as the compound, how does the survival read?
Its survival is inactive: 76%.

With `Cc1cccc(N(CC(=O)N2CCCC2)S(C)(=O)=O)c1` as the compound, how does the survival read?
The survival was inactive: 72%.

Which survival does the source give for `COc1cc(NS(=O)(=O)c2cccs2)cc(OC)c1` here?
Its survival is inactive: 45%.

Which survival does the source give for `Cc1cc(C)c(OCC(=O)Nc2cccc(-c3nc4ncccc4o3)c2)c(Br)c1` here?
Its survival is active: 4%.

With `CC1(C)C2CCC(C2)C1(C)NC(=O)CNCc1ccco1` (stereo unspecified) as the compound, how does the survival read?
Its survival is inactive: 96%.

Which survival does the source give for `Oc1c(C(c2ccc(Cl)cc2)N2CCOCC2)sc2nc(-c3ccco3)nn12` (stereo unspecified) here?
The survival was inactive: 112%.

How did the survival turn out when `CC1CCN(S(=O)(=O)c2ccc3nc(N4CCN(c5ccccc5)CC4)ccc3c2)CC1` was run?
The survival was inactive: 78%.

With `Fc1cccc(CSc2nc(NCCc3ccccc3)c3ccccc3n2)c1` as the compound, how does the survival read?
Its survival is active: 20%.

Which survival does the source give for `COc1ccccc1OCC(=O)Nc1cc(-c2ccc(C)cc2)no1` here?
The survival was inactive: 66%.

For `COc1ccc(N2CCN(C(=O)c3nn(C)c4c3CSc3ccccc3-4)CC2)cc1`, which survival is on record?
The survival was inactive: 84%.

`CCCN(C(=O)NCc1noc2ccc(C)cc12)c1ccc(Cl)c(Cl)c1` was tested. Which survival did it give?
Its survival is inactive: 46%.

`CCc1ccc(C(=O)c2cn(CC(=O)Nc3ccc(OC)c(Cl)c3)c3nc(C)ccc3c2=O)cc1` was tested. Which survival did it give?
The survival was inactive: 105%.

With `Cc1ccc(Cl)cc1NC(=O)Cn1cc(S(=O)(=O)Cc2ccccc2Cl)c2ccccc21` as the compound, how does the survival read?
Its survival is inactive: 95%.

How did the survival turn out when `CCC(=O)Nc1ccccc1-c1nc2ccccc2n(CC(=O)c2ccc(Br)cc2)c1=O` was run?
The survival was active: 29%.

For `CC(C)N1CCNCC1`, which survival is on record?
The survival was inactive: 97%.

`Cc1ccc(CSc2ncccc2C(=O)O)cc1` was tested. Which survival did it give?
The survival was inactive: 87%.

Which survival does the source give for `Cc1ccc(S(=O)(=O)N2CCCc3cc(NC(=O)c4ccc(C(C)(C)C)cc4)ccc32)cc1` here?
The survival was inactive: 112%.

How did the survival turn out when `CC(C)c1cc(=O)n2[nH]cnc2n1` was run?
The survival was inactive: 100%.

`Cc1cc(C)c2cc(C3C(C#N)=C(N)OC4=C3C(=O)CC(C)(C)C4)c(=O)[nH]c2c1` (stereo unspecified) was tested. Which survival did it give?
The survival was inactive: 120%.

With `COc1cccc(-c2nc(CS(=O)(=O)CC(=O)NCCCc3ccccc3)c(C)o2)c1` as the compound, how does the survival read?
The survival was inactive: 79%.

Which survival does the source give for `CCN(CC)c1ccc(NC(=O)c2sc3nc(-c4ccccc4)cn3c2C)cc1` here?
The survival was inactive: 97%.

For `Cc1nc(-c2ccc(F)cc2)sc1CCNC(=O)C(=O)Nc1ccc2c(c1)OCO2`, which survival is on record?
The survival was inactive: 95%.

`CCCn1c2ccccc2c2cnn(CC(=O)NCCc3cc(OC)ccc3OC)c(=O)c21` was tested. Which survival did it give?
The survival was inactive: 89%.

`CCOC(=O)c1cccc(NC(=O)NCc2ccc3c(c2)CCN3C(=O)CC)c1` was tested. Which survival did it give?
Its survival is inactive: 67%.

Which survival does the source give for `COc1ccc(CC(=O)NCCc2csc(-c3cccc(F)c3)n2)cc1OC` here?
Its survival is inactive: 80%.

For `Cc1ccc(C)c(NC(=O)Cn2c(=O)n(Cc3ccco3)c(=O)c3ccc(C(=O)NC4CCCC4)cc32)c1`, which survival is on record?
The survival was inactive: 95%.

With `Cc1ccc(S(=O)(=O)Nc2cc3c(C(=O)OCc4ccccc4)c(C)oc3c3ccccc23)cc1` as the compound, how does the survival read?
The survival was inactive: 65%.

`CCOC(=O)c1ccccc1NC(=O)c1sc2ncn(CC)c(=O)c2c1C` was tested. Which survival did it give?
Its survival is inactive: 68%.

`O=C(Cn1c(SCCOc2ccccc2Cl)nc2ccccc21)N1CCCCC1` was tested. Which survival did it give?
Its survival is active: 34%.

`COCCNC(=O)c1c[nH]c2ccccc2c1=O` was tested. Which survival did it give?
Its survival is inactive: 81%.

With `CCCc1cc(=O)[nH]c(SCc2nc(-c3ccc(OC)cc3)no2)n1` as the compound, how does the survival read?
Its survival is inactive: 92%.

How did the survival turn out when `Cc1ccccc1NC(=O)Cn1c(=O)n(Cc2ccco2)c(=O)c2cccnc21` was run?
The survival was inactive: 78%.

With `Cc1ccc(-c2cc(C(=O)NCCc3ccccc3)c3ccccc3n2)cc1C` as the compound, how does the survival read?
The survival was inactive: 88%.

Which survival does the source give for `O=C(NCc1ccc(F)cc1)c1cccc(N2CCCS2(=O)=O)c1` here?
Its survival is inactive: 94%.

How did the survival turn out when `O=C(NCCc1ccccc1)c1cc(-c2ccccc2)nc2n[nH]c(-c3ccccc3)c12` was run?
The survival was inactive: 55%.

How did the survival turn out when `CN(C)c1ccc(/C=C(\C#N)c2nc3ccccc3c(=O)[nH]2)cc1` was run?
Its survival is inactive: 69%.

For `CN(C(=S)S)C1CCS(=O)(=O)C1` (stereo unspecified), which survival is on record?
Its survival is inactive: 95%.

Which survival does the source give for `CCN1CCN(CC2CCCCC2)CC1` here?
Its survival is inactive: 90%.

Which survival does the source give for `CC(C)c1ccc(NC(=O)CNC(=O)Cn2ccc3ccccc3c2=O)cc1` here?
The survival was inactive: 62%.

For `O=C(c1ccc(CSc2nc3ccncc3n2Cc2ccccc2F)cc1)N1CCCCC1`, which survival is on record?
The survival was inactive: 76%.

How did the survival turn out when `CCOc1ccc(NC(=O)NCCCN2CCN(c3ccc(OC)cc3)CC2)cc1` was run?
The survival was inactive: 94%.

How did the survival turn out when `CCOc1ccccc1Nc1sc(C(=O)c2ccc(Cl)cc2)c(N)c1C#N` was run?
Its survival is inactive: 94%.

Which survival does the source give for `CCC(C)NS(=O)(=O)c1ccc(S(=O)(=O)N(Cc2ccc(C)o2)C2CCCC2)cc1` (stereo unspecified) here?
The survival was inactive: 88%.

With `Fc1ccc(C2=NC(c3cccc(C(F)(F)F)c3)=Nc3ccccc3N2)cc1` as the compound, how does the survival read?
The survival was inactive: 75%.

How did the survival turn out when `O=c1[nH]ncc(NCCN2CCOCC2)c1Cl` was run?
Its survival is inactive: 101%.

With `CCC(=O)N1CCc2cc(S(=O)(=O)CCC(=O)N(C)c3ccc(OC)cc3)ccc21` as the compound, how does the survival read?
The survival was inactive: 90%.

How did the survival turn out when `Cc1cc(Nc2cccc(Cl)c2)nc2ccc(NC(=O)c3ccc(F)cc3Cl)cc12` was run?
The survival was inactive: 102%.

For `O=C(Nc1ccccc1C(=O)OCc1cc(=O)n2ccsc2n1)c1cccc(F)c1`, which survival is on record?
Its survival is inactive: 109%.

Which survival does the source give for `Cc1ccc2nc(/C(C#N)=C/c3ccc(-c4ccc(F)cc4F)o3)[nH]c2c1` here?
Its survival is active: 11%.

For `COc1cc2c(cc1OC)C(c1cc3cc4c(cc3[nH]c1=O)OCO4)N(C(=O)C1CCC1)CC2` (stereo unspecified), which survival is on record?
Its survival is inactive: 97%.

How did the survival turn out when `CCC1(CC)Cc2ccccc2C(=C(C#N)C#N)N1` was run?
Its survival is inactive: 86%.

`CC1CCCN(S(=O)(=O)c2ccc(S(=O)(=O)N(Cc3cccs3)Cc3cccs3)cc2)C1` (stereo unspecified) was tested. Which survival did it give?
The survival was inactive: 100%.

Which survival does the source give for `Cc1ccc(Cl)cc1NC(=O)C1CCCN(S(=O)(=O)c2c(C)noc2/C=C/N(C)C)C1` (stereo unspecified) here?
Its survival is inactive: 51%.

With `COC(=O)c1c(NC(=O)CCCOc2ccccc2)sc2c1CCC(C)C2` (stereo unspecified) as the compound, how does the survival read?
The survival was active: 2%.

Which survival does the source give for `O=C(CCC1N=C2c3ccccc3N=C(SCc3cccc(Cl)c3)N2C1=O)NCc1cccs1` (stereo unspecified) here?
The survival was inactive: 86%.

For `COc1cccc(C(=O)N(Cc2cccc(Cl)c2)Cc2ccco2)c1`, which survival is on record?
Its survival is inactive: 68%.

With `CC(C)(C)c1ccc(OCC(=O)Nc2c(C(=O)c3ccc(F)cc3)oc3ccccc23)cc1` as the compound, how does the survival read?
The survival was inactive: 99%.

How did the survival turn out when `CSc1cccc(NC(=O)c2ccc3c(c2)c(C)c(C)n3Cc2ccc(F)cc2)c1` was run?
The survival was inactive: 73%.

`COCCN1C(=O)C2C3c4ccccc4C(c4ccccc43)C2C1=O` (stereo unspecified) was tested. Which survival did it give?
Its survival is inactive: 96%.

How did the survival turn out when `CC(C)NS(=O)(=O)c1ccc(OCC(=O)N2CCN(c3ccccc3F)CC2)cc1` was run?
Its survival is inactive: 81%.

How did the survival turn out when `Cc1cc(C)c2c(CC(=O)Nc3nnc(CC(C)C)s3)coc2c1` was run?
The survival was inactive: 93%.

With `COc1ccc(CCCc2nnc(SCC(=O)Nc3ccc(C)c(C)c3)o2)cc1` as the compound, how does the survival read?
The survival was inactive: 77%.

How did the survival turn out when `CCc1ccc(S(=O)(=O)c2cn(C)c3cc(N4CCN(CC)CC4)c(F)cc3c2=O)cc1` was run?
Its survival is inactive: 75%.

How did the survival turn out when `O=C(c1ccc(CS(=O)c2ccccc2Cl)o1)N1CCN(c2ccccc2F)CC1` (stereo unspecified) was run?
Its survival is inactive: 84%.

`O=S1(=O)N=C(Nc2cccc(C(F)(F)F)c2)c2ccccc21` was tested. Which survival did it give?
The survival was inactive: 53%.

For `COc1ccccc1-c1c(C)nn2c(C(F)(F)F)cc(-c3ccccc3)nc12`, which survival is on record?
The survival was inactive: 41%.

Which survival does the source give for `Cc1ccc(CN2CCC(CNC(=O)Nc3c(C)cccc3C)C2)cc1` (stereo unspecified) here?
The survival was inactive: 57%.

With `COc1cc2nc(SCc3ccc(F)cc3)n3nc(CCn4c(C)nc5ccccc54)nc3c2cc1OC` as the compound, how does the survival read?
Its survival is inactive: 82%.

`CCOc1ccc(S(=O)(=O)N(CC(=O)NCCSCc2ccccc2)c2ccccc2)cc1` was tested. Which survival did it give?
Its survival is inactive: 112%.

How did the survival turn out when `CCOc1ccccc1NC(=O)N1CCN(Cc2cc(=O)n3nc(-c4ccc(C)cc4)sc3n2)CC1` was run?
Its survival is inactive: 67%.
